The results in this text go back to the supplement of paper PMC8792480.

Structures can show the parent of a compound that is named as a salt. This is one part of the list. Many values rest on one well or one pass, so single values are uncertain.

The experiment has as its system A549. Put plainly: cell-surface PD-L1 MFI ratio relative to cisplatin alone (isotype-subtracted); higher = higher PD-L1 surface expression. Conditions: inducer: cisplatin 4 uM; 10 µM; 24 h. The protocol: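 A549 and H460 NSCLC cells were treated with each library drug at 10 uM, then with radiation (8 Gy) or cisplatin (4 uM), and incubated for 24 h. Cell-surface PD-L1 was measured by flow cytometry as an MFI ratio: (MFI drug+inducer - MFI isotype)/(MFI inducer alone - MFI isotype). Hits were defined as ratio < 0.75.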
As to `COc1cccc(OCCCN)c1-c1cc(Nc2cnc(C#N)cn2)n[nH]1`, the “cell-surface PD-L1 MFI ratio” value is active: 0.733. In the case of `Nc1ccc2ncnc(NCCc3ccc(Oc4ccccc4)cc3)c2c1`, the “cell-surface PD-L1 MFI ratio” value is active: 0.739.

With `c1ccc(-c2nn3c(c2-c2ccnc4cc(OCCN5CCOCC5)ccc24)CCC3)nc1`, the “cell-surface PD-L1 MFI ratio” value is active: 0.67. With `CC(=O)c1cnc2ccc(-c3cc(Cl)c(O)c(Cl)c3)nc2c1N[C@H]1CC[C@H](CN(C)C)CC1` the figure was inactive: 1.8; with `CCN(CC)CCNC(=O)c1c(C)[nH]c(/C=C2\C(=O)Nc3ccc(-c4csc(-c5ccccc5)n4)cc32)c1C` [Amcasertib (BBI503)], inactive: 6.29. On to `Cc1[nH]c(/C=C2\C(=O)Nc3ccc(S(=O)(=O)Cc4c(Cl)cccc4Cl)cc32)c(C)c1C(=O)N1CCC[C@@H]1CN1CCCC1`, for which the “cell-surface PD-L1 MFI ratio” value is inactive: 4.82. As to `O=S(=O)(c1cccc2c(I)cccc12)N1CCCNCC1`, the “cell-surface PD-L1 MFI ratio” value was active: 0.502. Turning to `CN(C)C(=N)NC(=N)N` [Metformin], the “cell-surface PD-L1 MFI ratio” value is active: 0.636.

`CC(ONC(=O)c1cc(C(F)(F)F)cc(C(F)(F)F)c1)C(=O)Nc1ccc(Cl)cc1` (stereo not given): the “cell-surface PD-L1 MFI ratio” value was active: 0.573. In the case of `FC(F)(F)c1ccc(CNc2ccc(Cc3c[nH]c4ncc(Cl)cc34)cn2)cn1` [Pexidartinib (PLX3397)], the “cell-surface PD-L1 MFI ratio” value is inactive: 1.18. With `COc1ccc(-c2cc3nccn3c(Nc3ncccc3C(N)=O)n2)cc1OC`, the “cell-surface PD-L1 MFI ratio” value was inactive: 0.953.

On to `Nc1ncn([C@H]2C[C@H](O)[C@@H](CO)O2)c(=O)n1` [Decitabine], for which the “cell-surface PD-L1 MFI ratio” value was active: 0.733. Under `C[C@H](NC(=O)c1c(N)nn2cccnc12)c1cc2cccc(C#Cc3cnn(C)c3)c2c(=O)n1-c1ccccc1` stands inactive: 1.16; under `CCN(CCCOc1ccc2c(Nc3cc(CC(=O)Nc4cccc(F)c4)[nH]n3)ncnc2c1)CCOP(=O)(O)O` [Barasertib (AZD1152-HQPA, AZD2811)], inactive: 0.988. With `CC(=O)Nc1cccc(-n2c(=O)n(C3CC3)c(=O)c3c(Nc4ccc(I)cc4F)n(C)c(=O)c(C)c32)c1`, the “cell-surface PD-L1 MFI ratio” value was inactive: 0.782. With `Cn1cc(-c2ccc(F)c(C(F)(F)F)c2)nc1C1CCN(c2ncnc3[nH]ncc23)CC1`, the “cell-surface PD-L1 MFI ratio” value is active: 0.647. Consider `Cc1cccc(CC(=O)N2CCc3c2ccc(-c2cn(C)c4ncnc(N)c24)c3F)n1`, for which the “cell-surface PD-L1 MFI ratio” value is active: 0.702.

`CN(C)c1cccc(-c2c3c(=O)n(-c4ccccc4Cl)[nH]c3cc(=O)n2C)c1`: the “cell-surface PD-L1 MFI ratio” value is inactive: 0.815. For the compound `O=C(/C=C\n1cnc(-c2cc(C(F)(F)F)cc(C(F)(F)F)c2)n1)NNc1cnccn1` [Selinexor (KPT-330)], the “cell-surface PD-L1 MFI ratio” value is inactive: 0.855. For the compound `Oc1nc(-c2ccc(C(F)(F)F)cc2)nc2c1CSCC2`, the “cell-surface PD-L1 MFI ratio” value is active: 0.603. Consider `CC(C)Oc1ccc(-c2c[nH]cc2CN(C)CCN)cc1`, for which the “cell-surface PD-L1 MFI ratio” value is inactive: 0.77.

Take `Cc1[nH]c2ccccc2c1CCNCc1ccc(/C=C/C(=O)NO)cc1` [Panobinostat]: the “cell-surface PD-L1 MFI ratio” value was inactive: 2.17. Under `CC(=O)Oc1ccccc1C(=O)O` [Aspirin] stands active: 0.474; under `Cc1nc(Nc2n[nH]c3c2CN(C(=O)N[C@H](CN(C)C)c2ccccc2)C3(C)C)c2sccc2n1`, inactive: 0.814. Under `CO[C@H]1C[C@@H]2CC[C@@H](C)[C@@](O)(O2)C(=O)C(=O)N2CCCC[C@H]2C(=O)O[C@H]([C@H](C)C[C@@H]2CC[C@@H](O)[C@H](OC)C2)CC(=O)[C@H](C)/C=C(\C)[C@@H](O)[C@@H](OC)C(=O)[C@H](C)C[C@H](C)/C=C/C=C/C=C/1C` [Rapamycin (Sirolimus)] stands inactive: 0.774; under `COc1cc(Br)c(Nc2nc(-c3c(C)nc4ncccn34)cs2)c(Br)c1`, inactive: 0.882. With `CCC(C)(C)C(=O)O[C@H]1C[C@@H](C)C=C2C=C[C@H](C)[C@H](CC[C@@H]3C[C@@H](O)CC(=O)O3)[C@H]21` [Simvastatin], the “cell-surface PD-L1 MFI ratio” value was inactive: 1.08. Consider `CCCCCCCCCCCCCCCCn1cc[n+](Cc2ccccc2)c1C`, for which the “cell-surface PD-L1 MFI ratio” value is inactive: 1.67.

For the compound `Nc1nc(F)nc2c1ncn2[C@@H]1O[C@H](CO)[C@@H](O)[C@@H]1O` [Fludarabine], the “cell-surface PD-L1 MFI ratio” value is inactive: 0.791. For `O=S(=O)(c1cccc2cnccc12)N1CCCNCC1` [Fasudil (HA-1077) HCl], the “cell-surface PD-L1 MFI ratio” value is active: 0.679. Regarding `CC1(C)[C@@H](O[C@H]2O[C@H](C(=O)O)[C@@H](O)[C@H](O)[C@H]2O[C@@H]2O[C@H](C(=O)O)[C@@H](O)[C@H](O)[C@H]2O)CC[C@]2(C)[C@H]3C(=O)C=C4[C@@H]5C[C@@](C)(C(=O)O)CC[C@]5(C)CC[C@@]4(C)[C@]3(C)CC[C@@H]12` [Glycyrrhizin (Glycyrrhizic Acid)], the “cell-surface PD-L1 MFI ratio” value is inactive: 0.958. `NC(=O)c1ncn([C@@H]2O[C@H](CO)[C@@H](O)[C@H]2O)c1N` [AICAR (Acadesine)]: the “cell-surface PD-L1 MFI ratio” value was active: 0.668. In the case of `Cc1cc(F)c(C(=O)Nc2cccc(-c3nncn3C(C)C)n2)cc1-n1cnc(C2CC2)c1` [Selonsertib (GS-4997)], the “cell-surface PD-L1 MFI ratio” value is inactive: 1.12. Regarding `CCOc1cc(N2CCC(O)CC2)ccc1Nc1ncc2c(n1)N(C)c1ccccc1C(=O)N2C`, the “cell-surface PD-L1 MFI ratio” value was inactive: 0.95. Take `CN(C(=O)c1ccc(F)cc1C(F)(F)F)C1CCN(c2nnc(-c3ccnn3C)c3ccccc23)CC1`: the “cell-surface PD-L1 MFI ratio” value was active: 0.608. For `Cc1cc(Nc2cc(N)ncn2)c(=O)n2c1C(=O)NC21CCCCC1` [Tomivosertib (eFT-508)], the “cell-surface PD-L1 MFI ratio” value was inactive: 0.823. As for `CCNC(=O)c1noc(-c2cc(C(C)C)c(O)cc2O)c1-c1ccc(CN2CCOCC2)cc1` [Luminespib (AUY-922, NVP-AUY922)], the “cell-surface PD-L1 MFI ratio” value was active: 0.644. For the compound `CN1CCN(c2nc(C3=C(c4c[nH]c5ccccc45)C(=O)NC3=O)c3ccccc3n2)CC1` [Sotrastaurin], the “cell-surface PD-L1 MFI ratio” value is inactive: 2.68. Under `CC(C)(C)C[C@@H]1N[C@@H](C(=O)N[C@H]2CC[C@H](O)CC2)[C@H](c2cccc(Cl)c2F)[C@]12C(=O)Nc1cc(Cl)ccc12` stands active: 0.63; under `c1ccc2c(-c3cnn4cc(-c5ccc(N6CCNCC6)cc5)cnc34)ccnc2c1`, inactive: 3.83.
